# Results: patent publication US11999805B1, “Peptide inhibitors of CRISPR-Cas9” (priority 2020, dated 2024)
# “Also recorded” adds a separate entry of the source. Read-outs that look alike come from different tables or passages of the source. At least one peptide structure holds a part that was inferred or is arguable (an end, a ring closure or a residue). Some entries repeat one wording, which the source may state once for all of them. For some assays here: At least one structure is not confirmed: it was looked up by name or label, or the drawing left a doubt. Residues, ends and D or L forms follow the SMILES beside them. No end group written: not given here.
# Legend:
# SpyCas9 [1] = biological target: T1, SpyCas9 (Streptococcus pyogenes serotype M1, UniProt Q99ZW2); format: biochemical, S. pyogenes; conditions: for IC50: read-out: SpyCas9 IC50, FRET cleavage assay, concentration curves, 0.5 μM Cas9, 50 nM DNA substrate
# T1 sequence (Q99ZW2 whole entry): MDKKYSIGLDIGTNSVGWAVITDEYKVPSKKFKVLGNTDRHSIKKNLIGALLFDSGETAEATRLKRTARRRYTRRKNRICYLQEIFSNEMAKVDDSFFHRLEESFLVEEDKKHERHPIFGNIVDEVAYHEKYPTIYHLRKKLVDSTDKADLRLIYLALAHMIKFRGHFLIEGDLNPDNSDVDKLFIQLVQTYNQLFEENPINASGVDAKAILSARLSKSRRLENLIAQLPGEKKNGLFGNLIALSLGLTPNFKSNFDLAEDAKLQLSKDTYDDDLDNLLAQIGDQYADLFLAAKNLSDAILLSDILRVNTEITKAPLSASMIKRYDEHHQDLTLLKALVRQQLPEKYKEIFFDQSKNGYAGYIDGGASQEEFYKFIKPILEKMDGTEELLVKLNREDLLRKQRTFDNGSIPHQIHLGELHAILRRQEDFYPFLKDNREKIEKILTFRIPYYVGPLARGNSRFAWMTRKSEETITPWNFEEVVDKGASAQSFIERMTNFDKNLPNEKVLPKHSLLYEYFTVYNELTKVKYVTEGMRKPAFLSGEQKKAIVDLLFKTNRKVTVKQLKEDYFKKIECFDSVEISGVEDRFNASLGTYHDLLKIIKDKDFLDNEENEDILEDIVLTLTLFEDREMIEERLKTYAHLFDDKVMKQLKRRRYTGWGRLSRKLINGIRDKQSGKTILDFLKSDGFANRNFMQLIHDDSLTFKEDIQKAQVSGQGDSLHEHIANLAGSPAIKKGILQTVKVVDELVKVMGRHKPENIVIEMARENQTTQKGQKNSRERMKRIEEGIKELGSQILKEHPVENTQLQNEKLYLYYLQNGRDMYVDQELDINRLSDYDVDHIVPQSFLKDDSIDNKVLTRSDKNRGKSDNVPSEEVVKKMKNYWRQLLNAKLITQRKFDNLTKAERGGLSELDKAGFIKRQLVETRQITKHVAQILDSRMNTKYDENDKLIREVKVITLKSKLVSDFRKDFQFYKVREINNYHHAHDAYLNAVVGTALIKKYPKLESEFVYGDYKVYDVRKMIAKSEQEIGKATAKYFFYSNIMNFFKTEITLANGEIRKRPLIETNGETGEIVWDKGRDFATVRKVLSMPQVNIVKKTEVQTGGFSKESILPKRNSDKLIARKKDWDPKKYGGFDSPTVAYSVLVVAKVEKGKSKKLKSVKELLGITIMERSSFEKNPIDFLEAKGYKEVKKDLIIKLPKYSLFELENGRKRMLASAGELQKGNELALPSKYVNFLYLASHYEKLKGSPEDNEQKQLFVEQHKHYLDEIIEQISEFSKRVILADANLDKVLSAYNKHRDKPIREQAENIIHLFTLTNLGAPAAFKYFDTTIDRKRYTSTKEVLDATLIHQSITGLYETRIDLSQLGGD
# Description: To determine whether synthetic peptides would inhibit Cas9 cleavage activity, 200 peptide sequences were selected for chemical synthesis based on the following criteria: (1) peptides enriched after independent panning on RNP immobilized on both the Monomeric Avidin and NeutrAvidin columns, (2) Higher Boman index (>2.3), the computed potential protein-protein interaction for a given amino-acids sequence (3) a predicted instability index below 50. Theses peptides were screened at 200 μM for inhibition of Cas9 cleavage activity using the recently developed HT FRET-based assay using a dual-quencher substrate with low background and high sensitivity. See Seamon K J, Light Y K, Saada E A, Schoeniger J S, Harmon B. 2018. Versatile High-Throughput Fluorescence Assay for Monitoring Cas9 Activity. Analytical Chemistry 90:6913-6921. This assay specifically measures DNA substrate cleavage, and is able to differentiate between cleavage of a single strand of DNA and cleavage of both DNA strands.
# Reactions (10 μL tubes) were set up in Cas9 reaction buffer (20 mM Tris-HCl, pH 7.5, 100 mM NaCl, 5 mM MgCl2, 0.1 mM EDTA) containing 50 nM annealed DNA substrate, 1.5 μM sgRNA, and 500 nM Cas9 in the wells of a black low volume 384-well plate. The reactions were incubated for 1 hour at ambient temperature; then, 10 μL of 8 M Gdn-HCl was added to quench the reaction before the plates were covered with an aluminum seal and incubated at 80° C. for 10 minutes. The fluorescence was read in a Tecan Infinite M1000 or SPARK plate spectrofluorometer (Tecan).
# The peptides were diluted 2-fold from 200 to 12.5 μM and incubated for 1 hour with 500 nM SpyCas9, gRNA prior to addition of 50 nM FRET DNA substrate for 1 hour. […] Data are the average ±SD of three replicate wells.
# (§1) For the 11 original peptides reactions (10 μL) were set up in Cas9 reaction buffer [20 mM Tris-HCl, pH 7.5, 100 mM NaCl, 5 mM MgCl2, 0.1 mM EDTA] containing 50 nM annealed DNA substrate, 1.5 μM sgRNA, and 0.5 μM Cas9 in the wells of a black low volume 384-well plate. The reactions were incubated for 1 hour at ambient temperature with the indicated concentration of peptide; then, 10 μL, of 8 M Guanidine-HCl was added to quench the reaction. The plates were covered with an aluminum seal and incubated at 75° C. for 10 minutes and cooled down to RT before reading.
# (§2) The % inhibition was determined by subtracting normalized relative fluorescent value to Cas9 without peptides (% activity) from 100% cleavage activity of CjeCas9, SauCas9, SpyCas9 by FRET assay. Data are the average ±SD of eleven replicate wells from three technical replicates at the indicated concentration of peptides.
# (§3) FIGS. 12A, 12B, and 12C show graphs of measurements and fitted curves of concentration dependent inhibition of mutated peptides against Cas9 variants. The inhibition was measured as relative fluorescent value to Cas9 without peptides (% activity) of CjeCas9 (line with squares), SauCas9 (line with diamonds), SpyCas9 (line with triangles) by FRET assay with the indicated concentration of peptides and compared to original peptides (line with circles). Data are the average ±SD of eleven replicate wells from three technical replicates.
# SauCas9 = biological target: T2, SauCas9 (Staphylococcus aureus, UniProt J7RUA5); experiment: HT FRET-based Cas9 cleavage activity assay, SauCas9; format: biochemical, S. aureus
# T2 construct: made in house; host or cells: E. coli BL21(star)DE3
# T2 sequence (J7RUA5 whole entry): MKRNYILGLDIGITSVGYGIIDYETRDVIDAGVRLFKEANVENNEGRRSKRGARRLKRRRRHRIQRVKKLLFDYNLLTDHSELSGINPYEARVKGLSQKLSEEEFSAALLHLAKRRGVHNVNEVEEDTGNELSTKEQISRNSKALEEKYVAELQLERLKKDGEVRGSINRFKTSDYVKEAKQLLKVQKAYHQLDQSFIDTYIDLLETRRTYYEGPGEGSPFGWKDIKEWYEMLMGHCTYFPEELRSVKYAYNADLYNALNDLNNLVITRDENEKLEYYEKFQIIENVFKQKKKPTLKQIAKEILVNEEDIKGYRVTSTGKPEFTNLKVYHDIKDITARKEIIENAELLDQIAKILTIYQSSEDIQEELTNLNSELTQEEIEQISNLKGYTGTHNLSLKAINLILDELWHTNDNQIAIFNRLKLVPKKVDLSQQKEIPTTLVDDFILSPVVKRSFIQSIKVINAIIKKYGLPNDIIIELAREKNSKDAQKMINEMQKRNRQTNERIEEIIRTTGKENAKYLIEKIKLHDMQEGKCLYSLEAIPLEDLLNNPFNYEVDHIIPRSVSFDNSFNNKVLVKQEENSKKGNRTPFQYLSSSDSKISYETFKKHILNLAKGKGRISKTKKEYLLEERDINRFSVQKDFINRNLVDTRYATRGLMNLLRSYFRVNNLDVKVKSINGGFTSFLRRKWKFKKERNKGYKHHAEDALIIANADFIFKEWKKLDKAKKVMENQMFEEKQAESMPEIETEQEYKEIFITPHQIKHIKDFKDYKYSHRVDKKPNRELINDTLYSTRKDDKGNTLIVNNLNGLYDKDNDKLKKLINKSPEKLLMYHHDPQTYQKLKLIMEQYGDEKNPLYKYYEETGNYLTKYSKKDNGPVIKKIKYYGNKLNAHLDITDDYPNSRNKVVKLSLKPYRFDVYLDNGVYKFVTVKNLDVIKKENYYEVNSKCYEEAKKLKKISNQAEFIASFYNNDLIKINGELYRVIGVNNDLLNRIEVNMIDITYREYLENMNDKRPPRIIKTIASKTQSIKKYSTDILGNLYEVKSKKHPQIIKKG
# Description: (§4) To evaluate the ability of identified peptides to inhibit other Cas9 variants, SauCas9 and CjeCas9 cleavage assays were used to quantitatively measure changes in activity. […] The inhibition was measured as relative fluorescent value to Cas9 without peptides (% activity) of CjeCas9 (Top), SauCas9 (middle), SpyCas9 (bottom) by FRET assay with the indicated concentration of peptides. Data are the average ±SD of eleven replicate wells from three technical replicates.
# as §1, §2, §3
# SpyCas9 [2] = biological target: T1, SpyCas9; experiment: Beacon DNA binding assay (Cas9 RNP binding to DNA substrate); set-up: species or system S. pyogenes; conditions: for binding of SpyCas9 RNP to DNA substrate (beacon fluorescence): peptide 40 μM, SpyCas9 500 nM, DNA substrate 50 nM
# Description: To determine the mechanism of action of these peptide inhibitors, a binding assay was performed to determine if inhibitors are blocking Cas9 RNP binding to the DNA substrate. The beacon DNA binding assay was adapted and performed as described in Mekler V, Minakhin L, Semenova E, Kuznedelov K, Severinov K. 2016. Kinetics of the CRISPR-Cas9 effector complex assembly and the role of 3′-terminal segment of guide RNA. Nucleic Acids Res 44:2837-45. DNA probes were prepared from unmodified and chromophore-labeled DNA oligonucleotides synthesized by Integrated DNA Technologies. Equimolar amounts of synthetic complementary strands were mixed in a buffer containing 40 mM Tris, pH 7.9, 100 mM NaCl; heated for 2 min at 90° C. and slowly cooled to 20° C. The PAM-distal ends of the beacon target and non-target strands were labeled with fluorescein and Iowa Black® FQ, respectively. Both beacons mimic native target DNA and bind Cas9/sgRNA. The fluorescent signal is increased when Cas9 binds the DNA substrate and a helix forms with the target substrate strand and gRNA resulting in dissociation of oligo 3, leading to increase in fluorescent signal.
# Data are the average ±SD of three replicate wells.
# CjeCas9 = biological target: T3, CjeCas9 (Campylobacter jejuni subsp. jejuni serotype O:2, UniProt Q0P897); experiment: HT FRET-based Cas9 cleavage activity assay, CjeCas9; format: biochemical, C. jejuni
# T3 construct: made in house; host or cells: E. coli BL21(star)DE3
# T3 sequence (Q0P897 whole entry): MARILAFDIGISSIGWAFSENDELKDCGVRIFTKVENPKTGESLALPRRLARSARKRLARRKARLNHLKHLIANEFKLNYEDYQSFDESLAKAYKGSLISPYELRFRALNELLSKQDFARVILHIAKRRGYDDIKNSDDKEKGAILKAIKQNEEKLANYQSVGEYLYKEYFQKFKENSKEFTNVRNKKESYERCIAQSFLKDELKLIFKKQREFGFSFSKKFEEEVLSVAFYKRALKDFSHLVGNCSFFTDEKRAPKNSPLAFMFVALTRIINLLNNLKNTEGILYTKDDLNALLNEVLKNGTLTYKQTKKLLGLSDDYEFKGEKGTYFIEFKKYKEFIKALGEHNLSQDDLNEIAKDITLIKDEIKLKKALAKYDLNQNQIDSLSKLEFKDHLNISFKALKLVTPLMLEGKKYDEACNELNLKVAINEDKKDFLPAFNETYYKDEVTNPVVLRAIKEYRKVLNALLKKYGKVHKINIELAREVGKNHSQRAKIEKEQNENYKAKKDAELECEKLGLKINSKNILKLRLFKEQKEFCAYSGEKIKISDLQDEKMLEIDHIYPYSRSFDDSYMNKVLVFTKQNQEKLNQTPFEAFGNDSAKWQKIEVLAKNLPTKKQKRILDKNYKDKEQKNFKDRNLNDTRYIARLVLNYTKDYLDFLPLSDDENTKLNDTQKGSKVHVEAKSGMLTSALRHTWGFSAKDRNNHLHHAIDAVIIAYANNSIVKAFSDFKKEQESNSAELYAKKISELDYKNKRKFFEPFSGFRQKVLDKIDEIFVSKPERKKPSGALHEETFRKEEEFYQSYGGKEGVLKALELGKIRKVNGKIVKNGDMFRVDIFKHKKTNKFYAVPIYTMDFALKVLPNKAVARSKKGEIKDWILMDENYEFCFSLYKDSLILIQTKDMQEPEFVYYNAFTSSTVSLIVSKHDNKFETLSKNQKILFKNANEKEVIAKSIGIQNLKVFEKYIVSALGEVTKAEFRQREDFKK
# Description: as §4
# as §1, with “The reactions were incubated for 1 hour at ambient temperature with the indicated concentration of peptide; then, 10 μL, of 8 M Guanidine-HCl was added to quench the reaction.” left out, “reading. […]” for “reading.”
# as §3, with “Data are the average ±SD of eleven replicate wells from three technical replicates.” left out
compound,measurement,setting,value
DRSHKILLRYNGCHYRLLQRSL [Peptide 90],"activity of SpyCas9 (% activity, FRET)",SpyCas9 [1]; peptide 100 μM,significantly reduced activity
same,"activity of SpyCas9 (% activity, FRET)",SpyCas9 [1]; peptide 200 μM,significantly reduced activity
same,"activity of SauCas9 (% activity, FRET)",SauCas9; peptide 100 μM,significantly reduced activity
same,"activity of SauCas9 (% activity, FRET)",SauCas9; peptide 200 μM,significantly reduced activity; also recorded: reduced SauCas9 activity
same,mechanism subset: blocks Cas9 RNP binding to target DNA or other mechanism,SpyCas9 [2],block Cas9 RNP binding to the target DNA
same,binding of SpyCas9 RNP to DNA substrate (beacon fluorescence),SpyCas9 [2],unaltered; also recorded: did not reduce substrate binding
IAGFRREWFNQNTYFENWHADR [Peptide 15],"activity of SpyCas9 (% activity, FRET)",SpyCas9 [1]; peptide 100 μM,significantly reduced activity
same,"activity of SpyCas9 (% activity, FRET)",SpyCas9 [1]; peptide 200 μM,significantly reduced activity
same,"activity of SauCas9 (% activity, FRET)",SauCas9; peptide 200 μM,significantly reduced activity
same,"activity of CjeCas9 (% activity, FRET)",CjeCas9; peptide 100 μM,significantly reduced activity
same,"activity of CjeCas9 (% activity, FRET)",CjeCas9; peptide 200 μM,significantly reduced activity
same,mechanism subset: blocks Cas9 RNP binding to target DNA or other mechanism,SpyCas9 [2],block Cas9 RNP binding to the target DNA
same,binding of SpyCas9 RNP to DNA substrate (beacon fluorescence),SpyCas9 [2],unaltered; also recorded: did not reduce substrate binding
CC[C@H](C)[C@H](NC(=O)[C@H](CCCNC(=N)N)NC(=O)[C@H](Cc1c[nH]cn1)NC(=O)[C@H](CC(N)=O)NC(=O)[C@@H](N)CC(C)C)C(=O)N[C@@H](CCSC)C(=O)N[C@@H](CC(C)C)C(=O)N[C@@H](CO)C(=O)N[C@@H](CS)C(=O)N1CCC[C@H]1C(=O)N[C@@H](CCCCN)C(=O)N[C@@H](Cc1ccc(O)cc1)C(=O)N[C@@H](Cc1ccc(O)cc1)C(=O)N[C@@H](CC(C)C)C(=O)N[C@@H](Cc1ccc(O)cc1)C(=O)N[C@@H](CCC(=O)O)C(=O)N[C@@H](CC(C)C)C(=O)N[C@H](C(=O)NCC(=O)N[C@@H](Cc1c[nH]cn1)C(=O)N[C@H](C(=O)N[C@@H](CO)C(=O)O)[C@@H](C)O)C(C)C [Peptide 50-2-16] (H-LNHRIMLSCPKYYLYELVGHTS-OH),IC50,SpyCas9 [1],56.1 µM
VCAFSADESLLIRRRHQRRRAG [Peptide 60],"activity of SpyCas9 (% activity, FRET)",SpyCas9 [1]; peptide 100 μM,significantly reduced activity
same,"activity of SpyCas9 (% activity, FRET)",SpyCas9 [1]; peptide 200 μM,significantly reduced activity
same,"activity of SauCas9 (% activity, FRET)",SauCas9; peptide 100 μM,significantly reduced activity
same,"activity of SauCas9 (% activity, FRET)",SauCas9; peptide 200 μM,significantly reduced activity; also recorded: reduced SauCas9 activity
same,mechanism subset: blocks Cas9 RNP binding to target DNA or other mechanism,SpyCas9 [2],block Cas9 RNP binding to the target DNA
same,binding of SpyCas9 RNP to DNA substrate (beacon fluorescence),SpyCas9 [2],significantly reduced; also recorded: reducing binding
CC[C@H](C)[C@H](NC(=O)[C@H](CCCNC(=N)N)NC(=O)[C@H](Cc1ccc(O)cc1)NC(=O)[C@H](Cc1ccc(O)cc1)NC(=O)[C@@H](N)CC(C)C)C(=O)N[C@@H](CCSC)C(=O)N[C@@H](CC(C)C)C(=O)N[C@@H](CO)C(=O)N[C@@H](CS)C(=O)N1CCC[C@H]1C(=O)N[C@@H](CCCCN)C(=O)N[C@@H](Cc1ccc(O)cc1)C(=O)N[C@@H](Cc1ccc(O)cc1)C(=O)N1CCC[C@H]1C(=O)N[C@@H](CS)C(=O)N[C@@H](CCC(=O)O)C(=O)N[C@@H](CC(C)C)C(=O)N[C@H](C(=O)NCC(=O)N[C@@H](Cc1c[nH]cn1)C(=O)N[C@H](C(=O)N[C@@H](CO)C(=O)O)[C@@H](C)O)C(C)C [Peptide 50] (H-LYYRIMLSCPKYYPCELVGHTS-OH),mechanism subset: blocks Cas9 RNP binding to target DNA or other mechanism,SpyCas9 [2],block Cas9 RNP binding to the target DNA
KERRRSLMQLSVKSNSLFLGGT [Peptide 82],IC50,SpyCas9 [1],> 200 µM
CC[C@H](C)[C@H](NC(=O)[C@H](CCCNC(=N)N)NC(=O)[C@H](CC(C)C)NC(=O)[C@H](Cc1ccc(O)cc1)NC(=O)[C@@H](N)CC(C)C)C(=O)N[C@@H](CCSC)C(=O)N[C@@H](CC(C)C)C(=O)N[C@@H](CO)C(=O)N[C@@H](CS)C(=O)N1CCC[C@H]1C(=O)N[C@@H](CCCCN)C(=O)N[C@@H](CC(N)=O)C(=O)N[C@@H](CC(N)=O)C(=O)N1CCC[C@H]1C(=O)N[C@@H](CS)C(=O)NCC(=O)N[C@@H](CC(C)C)C(=O)N[C@H](C(=O)NCC(=O)N[C@@H](Cc1c[nH]cn1)C(=O)N[C@H](C(=O)N[C@@H](CO)C(=O)O)[C@@H](C)O)C(C)C [Peptide 50-2-14] (H-LYLRIMLSCPKNNPCGLVGHTS-OH),IC50,SpyCas9 [1],75.5 µM
RRSHIAWLLAMSLTWYS [Peptide 99],IC50,SpyCas9 [1],48.5 µM
CC[C@H](C)[C@H](NC(=O)[C@H](CCCNC(=N)N)NC(=O)[C@H](Cc1c[nH]cn1)NC(=O)[C@H](CC(N)=O)NC(=O)[C@@H](N)CC(C)C)C(=O)N[C@@H](CCSC)C(=O)N[C@@H](CC(C)C)C(=O)N[C@@H](CO)C(=O)N[C@@H](CS)C(=O)N1CCC[C@H]1C(=O)N[C@@H](CCCCN)C(=O)N[C@@H](Cc1ccc(O)cc1)C(=O)N[C@@H](Cc1ccc(O)cc1)C(=O)N[C@@H](CC(C)C)C(=O)N[C@@H](Cc1ccc(O)cc1)C(=O)N[C@@H](CCC(=O)O)C(=O)N[C@@H](CC(C)C)C(=O)N[C@H](C(=O)NCC(=O)N[C@@H](Cc1c[nH]cn1)C(=O)N[C@H](C(=O)N[C@@H](CO)C(=O)O)[C@@H](C)O)C(C)C [Peptide 50-2-13] (H-LNHRIMLSCPKYYLYELVGHTS-OH),IC50,SpyCas9 [1],> 200 µM
LNVKIGNAHLTTIMSTMPLVLC [Peptide 63],IC50,SpyCas9 [1],97.9 µM
